The results in this text go back to the antibiotic and cytotoxicity screens of Wong et al. (2023).

This is one part of the list.

The test system of assay [1] is HSkMC (human skeletal muscle cells). In words: cytotoxicity call (relative viability < 0.9). The conditions noted are these: 10 µM.
Assay [2] deals with HepG2. In words: cytotoxicity call (relative viability < 0.9). Particulars: 10 µM.
The subject of assay [3] is S. aureus RN4220. In words: growth inhibition call (relative growth <= 0.2). The conditions noted are these: 50 µM.

Turning to `C[C@@H]1CN([C@H](C)CO)C(=O)c2cc(NS(=O)(=O)c3cn(C)cn3)ccc2O[C@@H]1CN(C)Cc1ccccc1`, the cytotoxicity call in assay [1] and in assay [2] was “inactive” each time. Moreover, in assay [3], the growth inhibition call was “inactive”.

Turning to `C[C@H]1CN([C@@H](C)CO)C(=O)Cc2cc(NS(=O)(=O)c3ccc(F)cc3)ccc2O[C@@H]1CN(C)S(=O)(=O)c1cn(C)cn1`, the cytotoxicity call in assay [1] and in assay [2] was “inactive” each time. Further, the growth inhibition call in assay [3] is “inactive”.

For `CC(C)(C)C(=O)c1cccs1`, the cytotoxicity call in assay [1] and in assay [2] was “inactive” throughout. The growth inhibition call in assay [3] was “inactive”.

With `COc1ccc(S(=O)(=O)Nc2ccc3c(c2)C(=O)N([C@H](C)CO)C[C@H](C)[C@@H](CN(C)S(C)(=O)=O)OCCCC[C@@H](C)O3)cc1`, the cytotoxicity call in assay [1] and in assay [2] was “inactive” in each case. Also, the growth inhibition call in assay [3] is “inactive”.

For `COc1ccc(S(=O)(=O)N(C)C[C@H]2Oc3ccc(NC(=O)CCCN(C)C)cc3C(=O)N([C@H](C)CO)C[C@H]2C)cc1`, the cytotoxicity call in assay [1] and in assay [2] was “inactive” in each case. Moreover, the growth inhibition call in assay [3] was “inactive”.

Regarding `C[C@@H]1CCCCO[C@H](CN(C)C(=O)Nc2ccccc2)[C@@H](C)CN([C@@H](C)CO)C(=O)c2cc(NS(=O)(=O)c3ccc(F)cc3)ccc2O1`, the cytotoxicity call in assay [1] and in assay [2] was “inactive” throughout. In addition, in assay [3], the growth inhibition call was “inactive”.

As for `C[C@@H]1CCCCO[C@@H](CN(C)C(=O)Nc2ccccc2)[C@H](C)CN([C@H](C)CO)C(=O)c2cc(NS(=O)(=O)c3ccc(F)cc3)ccc2O1`, the cytotoxicity call in assay [1] is “inactive”. In assay [2], the cytotoxicity call is “active”. Besides, the growth inhibition call in assay [3] is “inactive”.

In the case of `C[C@@H]1CCCCO[C@@H](CN(C)C(=O)Nc2ccc(F)cc2)[C@H](C)CN([C@H](C)CO)C(=O)c2cc(NC(=O)C3CCCCC3)ccc2O1`, the cytotoxicity call in assay [1] and in assay [2] was “inactive” each time. Further, the growth inhibition call in assay [3] was “inactive”.

Turning to `C[C@H](CO)N1C[C@H](C)[C@H](CN(C)S(=O)(=O)c2cn(C)cn2)OCCCC[C@H](C)Oc2ccc(NC(=O)Nc3ccc(C(F)(F)F)cc3)cc2C1=O`, the cytotoxicity call in assay [1] and in assay [2] was “inactive” throughout. Also, the growth inhibition call in assay [3] is “inactive”.

As to `C[C@@H]1CCCCO[C@H](CN(C)S(=O)(=O)c2cccs2)[C@H](C)CN([C@@H](C)CO)C(=O)c2cc(NC(=O)Nc3ccc(C(F)(F)F)cc3)ccc2O1`, the cytotoxicity call in assay [1] and in assay [2] was “active” each time. The growth inhibition call in assay [3] is “inactive”.

Consider `Cc1noc(C)c1S(=O)(=O)Nc1cccc2c1O[C@@H](CN(C)S(C)(=O)=O)[C@@H](C)CN([C@@H](C)CO)C2=O`, for which, in assay [1], the cytotoxicity call is “inactive”. Also, in assay [2], the cytotoxicity call is “active”. Further, the growth inhibition call in assay [3] was “inactive”.

Regarding `C[C@H]1CN([C@@H](C)CO)S(=O)(=O)c2ccc(C#Cc3cccc(F)c3)cc2O[C@H]1CN(C)S(=O)(=O)c1cn(C)cn1`, the cytotoxicity call in assay [1] and in assay [2] was “inactive” throughout. In addition, the growth inhibition call in assay [3] was “inactive”.

On to `C[C@@H]1CCCCO[C@@H](CN(C)S(C)(=O)=O)[C@H](C)CN([C@@H](C)CO)C(=O)c2cc(NS(=O)(=O)c3cccs3)ccc2O1`, for which the cytotoxicity call in assay [1] and in assay [2] was “inactive” throughout. Moreover, the growth inhibition call in assay [3] was “inactive”.

Regarding `C[C@H](CCOc1cccc(CC(=O)O)c1)N(Cc1cccc(C(F)(F)F)c1Cl)CC(c1ccccc1)c1ccccc1`, the cytotoxicity call in assay [1] and in assay [2] was “inactive” throughout. The growth inhibition call in assay [3] was “inactive”.

With `CCS(=O)(=O)Nc1ccc2c(c1)C(=O)N(C)C[C@@H](OC)[C@H](C)CN(Cc1nccs1)[C@@H](C)CO2`, the cytotoxicity call in assay [1] and in assay [2] was “inactive” throughout. Moreover, the growth inhibition call in assay [3] is “inactive”.

Consider `COc1cccc(S(=O)(=O)Nc2ccc3c(c2)C(=O)N(C)C[C@H](OC)[C@@H](C)CN(C(=O)Cc2cccnc2)[C@@H](C)CO3)c1`, for which the cytotoxicity call in assay [1] and in assay [2] was “inactive” in each case. For the same molecule, the growth inhibition call in assay [3] is “inactive”.

Turning to `CC(C)NC(=O)Nc1ccc2c(c1)CC(=O)N([C@H](C)CO)C[C@@H](C)[C@H](CN(C)S(=O)(=O)c1ccccc1)O2`, the cytotoxicity call in assay [1] and in assay [2] was “inactive” in each case. In assay [3], the growth inhibition call is “inactive”.

Take `CNC(=O)C(=O)NC[C@H]1OCCN1S(=O)(=O)c1ccccc1`: the cytotoxicity call in assay [1] and in assay [2] was “inactive” in each case. Further, in assay [3], the growth inhibition call is “inactive”.

As for `O=C(NO)c1ccc(C(=O)N/N=C/[C@H](O)[C@@H](O)[C@H](O)CO)cc1`, the cytotoxicity call in assay [1] and in assay [2] was “inactive” throughout. For the same molecule, the growth inhibition call in assay [3] is “inactive”.

`COc1ccc(S(=O)(=O)N(C)C[C@@H]2OCCCC[C@H](C)Oc3ccc(NC(=O)NC4CCCCC4)cc3C(=O)N([C@H](C)CO)C[C@@H]2C)cc1`: the cytotoxicity call in assay [1] and in assay [2] was “inactive” throughout. Further, in assay [3], the growth inhibition call was “inactive”.

`COc1ccc(NC(=O)Nc2ccc3c(c2)C(=O)N([C@@H](C)CO)C[C@H](C)[C@@H](CN(C)Cc2ccc(Cl)c(Cl)c2)OCCCC[C@H](C)O3)cc1`: the cytotoxicity call in assay [1] and in assay [2] was “inactive” in each case. Further, the growth inhibition call in assay [3] was “inactive”.

Take `C[C@@H]1CCCCO[C@@H](CN(C)Cc2ccc(C(F)(F)F)cc2)[C@H](C)CN([C@@H](C)CO)C(=O)c2cc(NS(=O)(=O)c3cn(C)cn3)ccc2O1`: the cytotoxicity call in assay [1] and in assay [2] was “inactive” in each case. In addition, in assay [3], the growth inhibition call is “inactive”.

Regarding `CNC(=O)C[C@@H]1CC[C@@H]2[C@H](COC[C@H](O)CN2C(=O)Nc2cccc(OC)c2)O1`, the cytotoxicity call in assay [1] and in assay [2] was “inactive” each time. For the same molecule, the growth inhibition call in assay [3] is “inactive”.

On to `CC(C)NC(=O)N(C)C[C@@H]1OCCCC[C@@H](C)Oc2ccc(NS(C)(=O)=O)cc2C(=O)N([C@@H](C)CO)C[C@H]1C`, for which the cytotoxicity call in assay [1] and in assay [2] was “inactive” each time. The growth inhibition call in assay [3] was “inactive”.

For `O=S(=O)(NCCCCN(C/C=C/c1ccc(F)cc1)C/C=C/c1ccc(F)cc1)c1cccc2cnccc12`, in assay [1], the cytotoxicity call is “inactive”. For the same molecule, the cytotoxicity call in assay [2] is “active”. Also, the growth inhibition call in assay [3] is “inactive”.

Regarding `COC(=O)c1c2oc(c1C(=O)OC)C(=O)N[C@H](Cc1ccccc1)Cn1cc(nn1)[C@H](Cc1ccccc1)NC(=O)N[C@@H](COC(=O)NCCCCCC(=O)NO)CC2`, the cytotoxicity call in assay [1] and in assay [2] was “inactive” in each case. For the same molecule, the growth inhibition call in assay [3] is “inactive”.

As to `C[C@@H]1CCCCO[C@@H](CN(C)C(=O)c2ccccc2)[C@@H](C)CN([C@@H](C)CO)C(=O)c2cc(NS(=O)(=O)c3ccccc3)ccc2O1`, the cytotoxicity call in assay [1] and in assay [2] was “inactive” each time. The growth inhibition call in assay [3] was “inactive”.

Turning to `C[C@H](CO)N1C[C@H](C)[C@@H](CN(C)C(=O)Cc2cccnc2)Oc2ncc(C#CC3(O)CCCC3)cc2C1=O`, the cytotoxicity call in assay [1] and in assay [2] was “inactive” in each case. In assay [3], the growth inhibition call was “inactive”.

For `CN(C)C(=O)C[C@@H]1C=C[C@H](NC(=O)C2CC2)[C@H](CO)O1`, the cytotoxicity call in assay [1] and in assay [2] was “inactive” each time. For the same molecule, in assay [3], the growth inhibition call is “inactive”.

Regarding `CC(C)NC(=O)N(C)C[C@@H]1OCc2cnnn2CCCC(=O)N([C@@H](C)CO)C[C@@H]1C`, the cytotoxicity call in assay [1] and in assay [2] was “inactive” throughout. Moreover, the growth inhibition call in assay [3] is “inactive”.

For `C[C@@H]1CN([C@H](C)CO)C(=O)c2cc(NS(=O)(=O)c3ccc(Cl)cc3)ccc2O[C@@H]1CN(C)S(=O)(=O)c1cn(C)cn1`, the cytotoxicity call in assay [1] and in assay [2] was “inactive” in each case. In addition, in assay [3], the growth inhibition call is “inactive”.

As for `O=C(C[C@@H]1CC[C@@H]2NC[C@@H](O)COC[C@H]2O1)NCCN1CCCC1`, the cytotoxicity call in assay [1] and in assay [2] was “inactive” throughout. In addition, in assay [3], the growth inhibition call was “inactive”.

For `CCC(=O)OCC(=O)C1(OC(=O)CC)C(C)CC2C3CCC4=CC(=O)C=CC4(C)C3(Cl)C(O)CC21C` (stereo not drawn), the cytotoxicity call in assay [1] and in assay [2] was “inactive” each time. Also, the growth inhibition call in assay [3] is “inactive”.

As for `C[C@H]1CCCCO[C@@H](CN(C)CC2CCCCC2)[C@@H](C)CN([C@@H](C)CO)C(=O)c2cc(NC(=O)Cc3ccccc3)ccc2O1`, the cytotoxicity call in assay [1] was “inactive”. In assay [2], the cytotoxicity call is “active”. Also, in assay [3], the growth inhibition call is “inactive”.

Regarding `C[C@@H]1CN([C@@H](C)CO)C(=O)c2cc(NC(=O)Cc3ccccc3)ccc2O[C@H]1CN(C)Cc1ccc(C(F)(F)F)cc1`, the cytotoxicity call in assay [1] and in assay [2] was “inactive” throughout. Also, the growth inhibition call in assay [3] was “inactive”.

For `C[C@H]1CN([C@@H](C)CO)C(=O)c2c(c3ccccc3n2C)-c2ccccc2CO[C@H]1CN(C)Cc1ccc(O)cc1`, the cytotoxicity call in assay [1] and in assay [2] was “inactive” each time. Besides, the growth inhibition call in assay [3] is “inactive”.
